Hit rate of the full screen: of about 310,000 compounds, about 14,000 (4.5%) showed an effect of 50% or more. Effects have a minus sign here. Some of the results follow.
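Note: peak tail current of the secondary pulse compared with the same well before compound.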

human ether-à-go-go-related gene (hERG) potassium channel, sequence (Q12809 whole entry, looked up): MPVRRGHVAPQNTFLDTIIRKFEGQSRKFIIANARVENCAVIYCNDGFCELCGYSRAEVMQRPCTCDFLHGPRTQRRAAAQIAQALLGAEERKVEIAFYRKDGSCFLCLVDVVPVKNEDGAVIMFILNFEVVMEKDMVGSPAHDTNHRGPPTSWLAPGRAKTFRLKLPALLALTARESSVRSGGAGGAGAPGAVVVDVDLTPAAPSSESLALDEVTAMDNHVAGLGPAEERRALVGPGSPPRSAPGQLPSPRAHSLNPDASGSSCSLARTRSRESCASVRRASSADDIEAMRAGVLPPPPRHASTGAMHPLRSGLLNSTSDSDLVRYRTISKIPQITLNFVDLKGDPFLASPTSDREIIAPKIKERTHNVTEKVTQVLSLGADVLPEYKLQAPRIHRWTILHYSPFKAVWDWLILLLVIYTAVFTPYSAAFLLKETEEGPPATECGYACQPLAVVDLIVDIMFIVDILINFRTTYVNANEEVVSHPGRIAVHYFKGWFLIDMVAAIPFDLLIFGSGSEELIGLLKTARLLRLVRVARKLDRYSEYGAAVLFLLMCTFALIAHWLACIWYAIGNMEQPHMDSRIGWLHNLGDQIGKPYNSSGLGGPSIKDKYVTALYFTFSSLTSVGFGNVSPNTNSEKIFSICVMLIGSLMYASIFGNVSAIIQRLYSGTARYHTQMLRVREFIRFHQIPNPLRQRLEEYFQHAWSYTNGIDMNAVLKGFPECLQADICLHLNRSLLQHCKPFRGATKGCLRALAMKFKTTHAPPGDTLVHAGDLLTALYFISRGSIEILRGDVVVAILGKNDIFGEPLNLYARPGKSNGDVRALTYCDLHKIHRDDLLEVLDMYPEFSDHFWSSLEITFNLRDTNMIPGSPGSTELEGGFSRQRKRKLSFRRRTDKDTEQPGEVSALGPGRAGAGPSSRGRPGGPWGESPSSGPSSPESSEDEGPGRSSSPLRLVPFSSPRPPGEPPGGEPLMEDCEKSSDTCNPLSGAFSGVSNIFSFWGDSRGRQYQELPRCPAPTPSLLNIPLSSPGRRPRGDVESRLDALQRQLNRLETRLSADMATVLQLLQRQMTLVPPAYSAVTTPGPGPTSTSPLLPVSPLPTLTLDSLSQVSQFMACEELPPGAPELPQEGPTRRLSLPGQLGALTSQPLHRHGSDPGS

This experiment concerns the target human ether-à-go-go-related gene (hERG) potassium channel (human, UniProt Q12809). The experiment in a line: primary screen, population patch clamp on CHO cells stably expressing hERG.
Consider `O=c1[nH]c(=O)n(CCc2ccc(F)cc2)c(O)c1C=NCCCN1CCOCC1`, for which the “hERG current change (%, negative = inhibition) at 10uM” value is given as -17.7%.

For the compound `CCC(C)c1ccc(NC(=O)c2cccs2)cc1` (centres unmarked), the “hERG current change (%, negative = inhibition) at 10uM” value was -3.55%. As for `N#Cc1ccccc1NC(=O)CN1CC=C(c2ccccc2)CC1`, the figure is -2.67%; as for `O=C(Nc1nnc(S(=O)(=O)N2CCN(c3ccc(F)cc3)CC2)s1)c1ccccc1`, -3.69%.

Consider `CCNC(=O)NC(=O)CSc1cccc(C(F)(F)F)c1`, for which the “hERG current change (%, negative = inhibition) at 10uM” value is given as -7.88%. Take `CC1S/C(=N/N=C/c2ccco2)N(Cc2ccc(F)cc2)C1=O` (centres unmarked): the “hERG current change (%, negative = inhibition) at 10uM” value is listed as -11.3%. In the case of `COc1ccc(CCN2C(=O)CC(NNc3ccc([N+](=O)[O-])cc3)C2=O)cc1OC` (centres unmarked), the “hERG current change (%, negative = inhibition) at 10uM” value is recorded as -52.8%. With `CCOC(=O)C1=C(C)NC(SCC(=O)Nc2nc(C)cs2)=C(C#N)C1c1cccs1` (centres unmarked), the “hERG current change (%, negative = inhibition) at 10uM” value amounted to 1.13%. With `CC1CCCN(CCOc2ccc3ccccc3c2Br)C1.O=C(O)C(=O)O` (centres unmarked), the “hERG current change (%, negative = inhibition) at 10uM” value is -69%. The value for `CC1=C(C(=O)OC(C)C)C(c2ccc(O)cc2)NC(=O)N1` (centres unmarked) was 15.9%; that for `O=C(Cn1cc(C(F)(F)F)cc(Cl)c1=O)Nc1cccc(Cl)c1` was 19.1%; that for `Cc1ccc(-c2nnc(Nc3ccc4c(c3)OCO4)c3ccccc23)cc1S(=O)(=O)NCCO` was -27%. In the case of `O=C(c1ccccc1NS(=O)(=O)c1ccc(Br)s1)N1CCOCC1`, the “hERG current change (%, negative = inhibition) at 10uM” value is listed as -1.04%. In the case of `CCn1cc(C(=O)N2CCN(c3ccccc3OC)CC2)c2cc(OC)c(OC)cc2c1=O`, the “hERG current change (%, negative = inhibition) at 10uM” value is on record as -1.96%. On to `CCCOc1c(Cl)cc(C(=O)Nc2ccc3c(c2)OCO3)cc1OCC`, for which the “hERG current change (%, negative = inhibition) at 10uM” value was 10.1%.

For the compound `Cc1c(/C=N\NC(=O)C2(C)CC2(Cl)Cl)cnn1C` (centres unmarked), the “hERG current change (%, negative = inhibition) at 10uM” value was determined as 5.55%.

Take `COc1ccccc1C(=O)NCCC(=O)NCc1cccnc1`: the “hERG current change (%, negative = inhibition) at 10uM” value worked out at 8.13%.

For the compound `CC(C)CNc1c2c(nc3ccccc13)CCC2.Cl`, the “hERG current change (%, negative = inhibition) at 10uM” value is -69.2%. `COc1ccc([N+](=O)[O-])cc1NC(=O)Cc1noc2ccc(C)cc12`: the “hERG current change (%, negative = inhibition) at 10uM” value was 12.9%. For `CN(C)c1ccc(C(CC(=O)c2ccccc2)C2CCCCC2=O)cc1` (centres unmarked), the “hERG current change (%, negative = inhibition) at 10uM” value was -5.11%. As to `Cc1c(OCC(=O)N2C[C@H]3C[C@@H](C2)c2cccc(=O)n2C3)ccc2c3c(c(=O)oc12)CCC3`, the “hERG current change (%, negative = inhibition) at 10uM” value was 1.16%. As to `C=CCNC(=O)c1sc(-c2ccccc2)nc1C`, the “hERG current change (%, negative = inhibition) at 10uM” value was -4.26%. `CCOc1ccc(S(=O)(=O)N2CCN(C(=O)C3CCC3)CC2)cc1`: the “hERG current change (%, negative = inhibition) at 10uM” value is given as -5.04%. For `C/C(=N\NC(=O)c1ccc(CSc2cccc3cccnc23)cc1)C1CCCCC1`, the “hERG current change (%, negative = inhibition) at 10uM” value was -9.08%. With `CCOC(=O)/C(CCCN(CC)CC)=N\O.CI`, the “hERG current change (%, negative = inhibition) at 10uM” value is 12.9%.

With `COc1ccc(-n2nc(C(=O)N3CCCCC3)c(C)c(C#N)c2=O)cc1`, the “hERG current change (%, negative = inhibition) at 10uM” value is on record as 22.5%. The value for `Cc1ccc(-n2nnc3c(=O)n(CC(=O)c4ccccc4)cnc32)cc1` was -4.76%; that for `COc1ccc(CCNC(=O)COC(=O)c2cc(=O)c3ccccc3o2)cc1` was -1.09%. As for `COc1ccc(C(C)(C)C)cc1NC(=O)COC(=O)c1nc2nccc(C)n2n1`, the figure is 3.17%; as for `COc1ccc(NC(=S)N2CCCC(c3nc4ccc(C)cc4[nH]3)C2)cc1` (centres unmarked), -10.5%; as for `C=CCn1c(C)c(C(C)=O)c(N2CCOCC2)nc1=S`, -5.62%.

In the case of `O=S(=O)(NCC(c1cccnc1)N1CCN(Cc2ccccc2)CC1)c1cc(F)ccc1F` (centres unmarked), the “hERG current change (%, negative = inhibition) at 10uM” value is -69.1%. For `CSCCC(NC(=O)c1ccccc1)C(=O)N1CC=C(c2ccccc2)CC1` (centres unmarked), the “hERG current change (%, negative = inhibition) at 10uM” value was found to be 6.4%. Turning to `COc1ccc(Nc2nnc(SCC(=O)/C=C3/N(C)c4ccccc4C3(C)C)s2)cc1`, the “hERG current change (%, negative = inhibition) at 10uM” value is -2.46%. Regarding `CC(=O)c1c(C)[nH]c(C(=O)Nc2ccc(C)cc2Br)c1C`, the “hERG current change (%, negative = inhibition) at 10uM” value is given as 15.8%. `CCC(CC)N1CCN(CC2CC=CCC2)CC1.O=C(O)C(=O)O` (centres unmarked): the “hERG current change (%, negative = inhibition) at 10uM” value was 3.64%. Regarding `COc1cc(C2C3C(=O)N(c4ccccc4)C(=O)C3ON2c2ccccc2)cc(OC)c1OC` (centres unmarked), the “hERG current change (%, negative = inhibition) at 10uM” value was -1.79%. Take `O=C(N/N=C/c1ccc(Br)o1)/C(=C/c1ccc([N+](=O)[O-])cc1)NC(=O)c1ccccc1`: the “hERG current change (%, negative = inhibition) at 10uM” value is on record as -60.1%. `Cc1cnccc1CN(C)C(=O)C1CCC(=O)N(Cc2ccccc2F)C1` (centres unmarked): the “hERG current change (%, negative = inhibition) at 10uM” value is -35.7%.

For the compound `CCCN1CCN(C(=S)Nc2ccc(SC(F)F)cc2)CC1`, the “hERG current change (%, negative = inhibition) at 10uM” value is -30.3%.

For `COC(=O)[C@]1(C)CCC[C@@]2(C)C3CC[C@@]4(C)C[C@]3(CC[C@H]12)C[C@H]4O` (some centres unmarked), the “hERG current change (%, negative = inhibition) at 10uM” value is on record as -0.194%. For `CCOc1ccc(NC(=O)CSc2nnnn2CC(=O)O)cc1`, the “hERG current change (%, negative = inhibition) at 10uM” value was determined as 10.6%.

Regarding `C(=N\Nc1ccccn1)/c1c[nH]c2ccccc12`, the “hERG current change (%, negative = inhibition) at 10uM” value is reported as -9.5%. Take `O=C(c1ccco1)N(CCC(c1ccccc1)c1ccco1)Cc1ccco1` (centres unmarked): the “hERG current change (%, negative = inhibition) at 10uM” value is -17.8%.

The values are drawn from paper PMC4336329 (PLoS ONE, 2015).
